In ChEMBL document CHEMBL1157539, “Thousands of chemical starting points for antimalarial lead identification” (Nature, 2010):
Over roughly 13,000 compounds, “IFI” has its median near 4; the highest 2% begin near 17. The list shows a part of the results. Residues, ends and D or L forms follow the SMILES beside them. *: point of attachment. Octanoyl = CCCCCCCC(=O)*

Experiment: GSK_TCMDC: Inhibition Frequency Index (IFI). The number of non-kinase HTS assays where a compound showed > 50 % inhibition, expressed as a percentage of the number of such assays in which the compound was tested (-0 is zero)
Assay type: functional

Row | SMILES | IFI [%]
1 | Cc1[nH]c(C)c(-c2ccc(Br)cc2)c(=O)c1Cl | 0.91
2 | Cc1cccc2nc(-c3ccc(-c4ccc(CNCCCN5CCCC5=O)cc4)cc3)[nH]c12 | 3.88
3 | CN(Cc1cccc(O)c1)C1CCCN(c2cc(NC(=O)c3ccc(F)cc3)ccn2)C1 (stereo not drawn) | 5
4 | CN=C(N)c1ccc(NC(=O)C=Cc2ccc(C(=O)Nc3ccc(C(N)=NC)cc3)cc2)cc1 | 10.3
5 | Nc1ncnc2occ(-c3ccc(NC(=O)Nc4cc(C(F)(F)F)ccc4F)cc3)c12 | 7.25
6 | CCn1c(-c2nonc2N)nc2c(-c3cccc(NC(=O)Nc4ccccc4OC)c3)ncc(OCCCN)c21 | 20.5
7 | O=C(CCCCCNC(=O)c1ccc(O)c(-c2ccc(Cl)c(Cl)c2)c1)NCc1cccc2ccccc12 | 0.74
8 | CC(=O)Nc1ccc(C2NC(=O)NC(c3ccccc3)=C2c2nc3ccccc3s2)cc1 (stereo not drawn) | 0
9 | Cc1cc(N2CCN(CC3CCN(C)CC3)CC2)nc(Nc2ccc(Cl)cc2)n1 | 3.57
10 | Cc1ccc(CNC(=O)c2cc3c(=O)n4ccccc4nc3n(CCCN3CCOCC3)c2=N)cc1 | 2.15
11 | CCN(CC)CCNC(=O)/C(=C/C=C/c1cc2cc(Cl)c(Cl)cc2[nH]1)OC | 7.63
12 | CC1CCC(NCc2ccc3c(CNC4CCC(C)CC4)c(O)ccc3c2O)CC1 (stereo not drawn) | 5.07
13 | O=[N+]([O-])c1cccc(-c2nc(-c3ccc(Br)cc3)[nH]c2-c2ccc(Br)cc2)c1 | 0
14 | CCOc1cc(C)ccc1N(C1CCN(CCCCNC(=O)c2ccc(-c3ccc(C(F)(F)F)cc3)cc2)CC1)S(=O)(=O)c1ccccc1 | 2.92
15 | CCCCCCCc1ccc(-c2c(C)[nH]c(C)c(Cl)c2=O)cn1 | 1.83
16 | N#Cc1cccc(NC(=O)NC2CCN(CCCCCNC(=O)/C=C/c3ccc(Cl)c(Cl)c3)CC2)c1 | 5.37
17 | CNC(=O)c1cc(F)c(F)cc1Nc1nc(Nc2cccc(CS(C)(=O)=O)c2)ncc1Cl | 3.85
18 | Cc1ccc(Cn2ncc(N3CCNCC3)c(Cl)c2=O)cc1NC(=O)Nc1ccc(-c2ccccc2)cc1 | 4.2
19 | CCN1CCC(N(Cc2ccc(-c3ccc(C(F)(F)F)cc3)cc2)C(=O)Cn2c(CCc3cccc(F)c3F)cc(=O)c3ccc(OCc4ccccc4)cc32)CC1 | 6.43
20 | FC(F)(F)c1ccc(NC(=S)N2CCC(CCN3CCC(c4c[nH]c5ccccc45)CC3)CC2)cc1 | 6.47
21 | CCCCCCCCn1ccc(=N)cc1 | 5.59
22 | CCCC(CNC(=O)c1cc2c(Cl)cc(Cl)cc2[nH]1)CNc1cc(=O)c2ccccc2[nH]1 (stereo not drawn) | 7.69

Row | SMILES | IFI [%]
23 | CN(N=Cc1ccccc1)C(=N)NCCCC#Cc1cccc(CN2CCCC2)c1 | 4.23
24 | CC(C)C[C@@H](NC(=O)OC(C)(C)C)C(=O)Nc1ccc(Cc2ccc(NC(=O)[C@@H](CC(C)C)NC(=O)OC(C)(C)C)cc2)cc1 | -0
25 | CCN(CC)Cc1ccc2c(=O)cc(CCc3cccc(F)c3F)n(CC(=O)N(Cc3ccc(-c4ccc(C(F)(F)F)cc4)cc3)C(C)C)c2c1 | 10.3
26 | CCCc1cc(Cc2cnc(N)nc2N)cc2c1OC(C)C2C (stereo not drawn) | 5.26
27 | O=C(Nc1ccc(Cl)c(Cl)c1)N1CCC(NCc2cccc([N+](=O)[O-])c2)CC1 | 2.88
28 | Cc1ccc(NC(=O)c2cc(S(=O)(=O)NC(C)(C)C)ccc2C)nc1 | 0
29 | COc1ccc(-c2nccc(NC(=N)NCc3ccccc3)n2)cc1 | 10.7
30 | CCC(=O)N[C@@H]1CN[C@@H](C#Cc2cc3c(Nc4ccc(OCc5cccc(F)c5)c(Cl)c4)ncnc3s2)C1 | 1.75
31 | COc1ccccc1C(C)NCC(=O)Nc1cccc(C(=O)Nc2cccc(C(F)(F)F)c2)c1 (stereo not drawn) | 4.08
32 | CC(C)n1c(C2CCN(CC3CCN(C(=O)/C=C/c4ccc(Cl)c(Cl)c4)CC3)CC2)nc2ccccc21 | 2.82
33 | COc1ccc(C=Cc2ccc(-c3c(C)[nH]c(C)c(Cl)c3=O)cc2)cc1OC | 0.92
34 | CCc1cc(Cc2cnc(N)nc2N)cc(CC)c1OC | 0.76
35 | CC(C)c1ccc(NC(=O)c2ccc(C(=O)NC3CCN(CC4CCCCC4)C3)cc2)cc1 (stereo not drawn) | 8.4
36 | Cc1cc(-c2ccc(Cl)cc2)c2c(N)c(C(=O)Nc3ccc(F)cc3)sc2n1 | 2.96
37 | CC(C)(CNC(=O)[C@@H]1CCCCN1)c1nc(-c2ccc(Cl)c(O)c2)c(-c2ccncc2)[nH]1 | 1.56
38 | CC(Oc1ccc(Cl)cc1)C(=O)NCCC1CCN(CCCCCNC(=O)/C=C/c2ccc(Cl)c(Cl)c2)CC1 (stereo not drawn) | 6.99
39 | CCC1N=C(N)N=C(N)N1OCc1ccc(Cl)c(Cl)c1 (stereo not drawn) | 6.43
40 | Cc1cccc2nc(-c3cccc(-c4ccc(NC(=O)Cc5ccon5)cc4)c3)[nH]c12 | 2.7
41 | O=C(Nc1cccc(CN2CCCN(CC3CCCCC3)CC2)c1)c1cc2ccccc2s1 | 3.85
42 | COc1ccc(NC(=O)Nc2cccc(-c3ccc(-c4nc5cccc(C)c5[nH]4)s3)c2)cc1 | 2.02
43 | O=C(O)c1ccc2c(c1)N(C(=O)CNCc1ccc(F)cc1)CC(=O)N2CCCc1ccccc1 | 0.75
44 | COc1ccccc1CCNc1nc(C)cc(N[C@@H](Cc2ccccc2)C(=O)NCc2cccs2)n1 | 9.76

Row | SMILES | IFI [%]
45 | CCCCCCN1CCC(NCc2cccc(C(F)(F)F)c2)CC1 | 3.4
46 | OC1(c2ccccc2)c2cc(Cl)ccc2OC1c1nc2c(Cl)ccc(Cl)c2o1 (stereo not drawn) | 1.48
47 | CCN1CCN(Cc2ccc(-c3ccc(NS(=O)(=O)c4cccc5cccnc45)cc3)cc2)CC1 | 7.44
48 | O=C(Nc1cccc(CN2CCCN(Cc3ccc(O)cc3)CC2)c1)c1ccc(Cl)c(Cl)c1 | 5.96
49 | O=C(/C=C/c1ccc(Cl)c(Cl)c1)NCCCN1CCC(c2c[nH]c3ccccc23)CC1 | 7.64
50 | Cc1cc(CNCCCCCCNCc2cccc([N+](=O)[O-])c2)ccc1O | 0.75
51 | Cc1cc(=O)c(C2CCC(c3ccc(Cl)cc3)CC2)c(C)[nH]1 (stereo not drawn) | -0
52 | Cc1ccccc1C1CCN(C2CCC(NC(=O)/C=C/c3ccc(F)c(F)c3)CC2)CC1 (stereo not drawn) | -0
53 | Cc1cccc2nc(-c3cccc(-c4ccc(CNCCNC(=O)c5ccnn5C)cc4)c3)[nH]c12 | 5
54 | COc1c(O)cc2oc(-c3ccc(O)cc3)cc(=O)c2c1O | 1.49
55 | O=C(c1cccc(-c2cccc(-c3nc4cc(F)ccc4[nH]3)c2)c1)N1CCCCC1CN1CCC(O)C1 (stereo not drawn) | 4.42
56 | O=C(Nc1cncc(NC(=O)c2ccc(Cl)c(Cl)c2)c1)c1ccc(Cl)c(Cl)c1 | 1.44
57 | O=C(C=Cc1ccc(Cl)c(Cl)c1)NCCCCCN1CCCC(CCCNS(=O)(=O)c2ccc(Br)cc2)C1 (stereo not drawn) | 10.1
58 | CCCCCCCCNCc1c(O)ccc2ccccc12 | 7.69
59 | Cc1cc(-c2ccc(NC(=O)Nc3ccc4nccc(N5CCN(C)CC5)c4c3)cc2C)cc(C)n1 | 2.21
60 | O=C1Nc2ccc3ncccc3c2/C1=C/Nc1ccc(N2CCN(CCO)CC2)cc1 | 12.7
61 | CCCCCn1c(Sc2ccc(C#N)c([N+](=O)[O-])c2)nnc1-c1cccs1 | 4.2
62 | Cc1cc(SC(C)(C)C)cc2c(Cl)c(C(N)=O)cnc12 | 32.5
63 | O=C(NCCCCN1CCN(c2cccc3c2OCCO3)CC1)c1ccc(NC(=O)c2cc(Cl)cc(Cl)c2)cc1 | 5.31
64 | CCCCC1(c2ccc(F)cc2)NC(=O)N(CC(=O)c2cc(C)n(Cc3ccco3)c2C)C1=O (stereo not drawn) | 16.2
65 | COc1ccc2nccc([C@@H](O)CN3CCC(NCc4ccc5scnc5c4)CC3)c2c1 | 0.74
66 | Clc1ccc(CNc2ccnc(NCc3cccnc3N3CCCC3)n2)c(Cl)c1 | 16.7

Row | SMILES | IFI [%]
67 | CC(C)(CNCc1cccc(Oc2ccccc2)c1)c1nc(-c2ccnc(N)n2)c(-c2ccc(Cl)c(O)c2)[nH]1 | 10.5
68 | COc1ccc(C(=O)N2CCC(CN3CCOC(c4ccccc4)(c4ccccc4)C3)CC2)cc1 | 3.85
69 | N=C1N=C(N)NC2(CCCCC2)N1OCC1CCCCC1 | 4.41
70 | CCOc1ccc(-c2nonc2NC(=O)c2ccc(Cl)cc2)cc1OCC | -0
71 | Cc1cc(-c2ccc(NC(=O)N3CCc4cc(Cl)c(N5CCN(C)CC5)cc43)cc2)ccc1C#N | 11.4
72 | NCc1ccc(CNCc2cccc(-c3ccc(-c4nc5ccccc5[nH]4)cc3)c2)cc1 | 8.82
73 | CCCCCCCN(Cc1ccc(OC(C)(C)C(=O)OCC)cc1)C(=O)Cc1ccc(F)cc1F | 3.65
74 | COc1ccc(CNC2Cc3ccccc3C2)cc1-c1ccc(S(=O)(=O)NCc2ccccc2)s1 | 12.3
75 | CCCCCCNC(=O)c1nn(CCN2CCC(N3CCCC3)CC2)cc1-c1ccc(Cl)c(Cl)c1 | 6.71
76 | Cc1ccc(C2CCN(CCCCNC(=O)c3ccc(NC(=O)c4ccc(Cl)cc4)cc3)CC2)c(OCC(F)(F)F)c1 | 4.51
77 | CCc1c[nH]c2c(N3CCCCS3(=O)=O)cc(C(=O)N[C@@H](Cc3ccccc3)[C@H](O)CNCc3cccc(OC)c3)cc12 | 2.86
78 | CS(=O)(=O)c1ccc2[nH]c(-c3cc(-c4cccc(F)c4)cnc3N)nc2c1 | 6.45
79 | COc1ccc(C2CCN(C#N)C2)cc1OC1CCCC1 (stereo not drawn) | 11.3
80 | CCc1ccc(OCCCON2C(=N)N=C(N)NC2(C)C)cc1 | 6.29
81 | COc1ccccc1OCCN(CC(O)COc1cccc2[nH]c3ccccc3c12)CC(O)COc1cccc2[nH]c3ccccc3c12 (stereo not drawn) | 3.1
82 | CN1CCCC1CCNc1ncc2c(-c3ccc(NC(=O)Nc4cc(C(F)(F)F)ccc4F)c(F)c3)nn(C)c2n1 (stereo not drawn) | 14.4
83 | CN(C)CCNC(=O)c1ccc(-c2ccc3c(Nc4ccccc4)c(C(N)=O)cnc3c2)cc1 | 3.13
84 | CC1=C(C(=O)OC(C)C)C(c2ccccc2Cl)C2=C(CC(c3ccccc3)CC2=O)N1 (stereo not drawn) | 3.33
85 | COc1ccc(Nc2ncc3c(-c4cccc(NC(=O)c5ccc(N)cc5)c4)c[nH]c3n2)cc1OC | 8.7
86 | Cc1ccc(NC(=O)c2ccc3ncccc3c2)cc1OC1CCN(CCC(C)C)CC1 | 3.33
87 | COc1ccc(CNCc2ccc(-c3cccc(-c4nc5cc(C(F)(F)F)ccc5[nH]4)c3)cc2)cc1 | 14.3
88 | CCCCCCCC(=O)N[C@@H](Cc1ccccc1)C(=O)N[C@H](C(=O)O)C(C)C (Octanoyl-Phe-Val-OH) | 0
